For part of its entries the source gives two or more results. They are shown here; other results are not. There may be further records. Values that stand side by side repeat one measurement across runs, samples, wells, individuals or studies.
Tested on: 276233-004-R-J1-PDC complex spheroid viability
Test: Anticancer human tumor 276233-004-R-J1-PDC patient-derived colon adenocarcinoma cell line growth inhibition [GQUAD]
Conditions: stronger effect = lower value
Excerpt: DNA G-quadruplex Stabilizer Agents in Combinations in Complex Spheroids
A high-throughput screen of multi-cell type tumor spheroids was designed to identify active combinations of DNA G-quadruplex stabilizer agents and targeted small molecules. Complex spheroids include a stromal component modeled by human endothelial cells (HUVEC) and fibroblasts modeled by human mesenchymal stem cells (MSCs). The concentration ranges selected for each drug and investigational agent were based upon clinically achievable concentrations if the clinical Cmax of the agent was known.
Compounds. The drugs and investigational agents: pidnarulex (CX-5461; NSC782164), APTO-253 (NSC789042), BRACO-19 (NSC847499), peposertib (NSC802822), ceralasertib (NSC780249), elimusertib (NSC800525), camonsertib (NSC841442), AZD-1390 (NSC803789), olaparib (NSC753686), talazoparib (NSC767125), ART-558 (NSC835418), sotorasib (NSC818433), MRTX-1133 (NSC836407), SN-38 (NSC673596), topotecan (NSC609699), etoposide (NSC141540), doxorubicin (NSC123127), gemcitabine (NSC613327), 5-fluorouracil (NSC19893), paclitaxel (NSC125973), vemurafenib (NSC761431), panobinostat (NSC761190), R-306465 (JNJ-16241199; NSC773264), adavosertib (NSC754352), TP-3654 (NSC805149), carboplatin (NSC241240), KSQ-4279 (NSC840948), and staurosporine (NSC755774) were obtained from the National Cancer Institute (NCI) Developmental Therapeutics Program Chemical Repository (34). The FDA-approved anticancer drug set is available from the NCI Developmental Therapeutics Program. […] The stock solutions were prepared in dimethyl sulfoxide (DMSO, Sigma-Aldrich, St. Louis, MO, cat. D2650) at 800-fold the tested concentration and stored at -70 degrees C prior to their use. All drugs and investigational agents were tested over a range starting from a high concentration at or near the clinical Cmax and decreasing in half-log increments. If the clinical Cmax for an agent had not been determined, the highest concentration tested was 10 microM.
2.3 Cell Culture. All cells were maintained in an incubator at 37 degrees C and 5% CO2 with 95% humidity. The PDC lines were cultured according to standard operating procedures established by the NCI PDMR. All PDCs were thawed and cultured in Matrigel-coated flasks prepared with a working solution of 1X Ham's F-12 nutrient mix, without supplementation (Invitrogen, cat. 11765054), 100 U/mL penicillin-streptomycin (Invitrogen, cat. 15140122), and 2.5% Matrigel (Corning Inc., cat. 354248) for the first three passages. The 857933-349-R-J2-PDC line was cultured in 6C/Colon 1B media, which includes advanced DMEM/F-12 (Thermo Fisher Scientific, cat. 12634028), 10 mM HEPES (Thermo Fisher Scientific, cat. 15630080), 1X GlutaMAX supplement (Thermo Fisher Scientific, cat. 35050061), 0.1 mg/mL primocin (InvivoGen, cat. ant-pm-2), 10% defined fetal bovine serum, heat inactivated (HyClone Laboratories Inc., cat. SH30070.03HI), 50% L-WRN conditioned media (ATCC, cat. CRL-3276), 1.25 mM N-Acetyl-L-cysteine (Sigma-Aldrich, cat. A9165), 10 mM nicotinamide (Sigma-Aldrich, cat. N0636), 1X B-27 supplement (Thermo Fisher Scientific, cat. 17504044), 1X N-2 supplement (Thermo Fisher Scientific, cat. 17502048), 10 microM Y-27632 dihydrochloride (Tocris Bioscience, cat. 1254), and 50 ng/mL human EGF recombinant protein (Thermo Fisher Scientific, cat. PHG0311). The 485176-168-R4-J1-PDC line was cultured in Panc media, which includes all 6C/Colon 1B media components plus 100 ng/mL human FGF-10 (Thermo Fisher Scientific, cat. 100-26), 500 nM SB-431542 (Selleckchem, cat. S1067), and gastrin (Tocris, cat. 3006).
[…]
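Note: spheroids exposed to drugs for seven days; 100% = DMSO vehicle control viability.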

## CN(C)c1ccc(Nc2c3ccc(NC(=O)CCN4CCCC4)cc3nc3cc(NC(=O)CCN4CCCC4)ccc23)cc1
Compound alone 0.0316 µM
  viability, T/C: 106, 84, 99.3, 88.2, 91.3, 82.6, 99.4, 74.4, 92.3, 94.2, 87, 98.2%
Compound alone 0.1 µM
  viability, T/C: 82, 70.9, 90.1, 85.9, 86.2, 95.9, 67.7, 64.4, 77.7, 69.5, 75.4, 71.4%

## Cc1cnc(CNC(=O)c2c(=O)c3ccc(N4CCCN(C)CC4)nc3n3c2sc2ccccc23)cn1
Compound alone 0.0316 µM
  viability, T/C: 94.6, 88.4, 96.8, 98.5, 107, 85.9, 106, 82.8, 79.8, 98.7, 81.3, 84.9%
Compound alone 0.1 µM
  viability, T/C: 92.7, 105, 89.1, 102, 76.3, 91.5, 86.9, 83, 90.7, 100, 101, 85.9%
Compound alone 0.316 µM
  viability, T/C: 84.4, 85.3, 86.9, 96.6, 78.9, 79.1, 104, 88.9, 93.3, 76.8, 88.2, 92.5%

## Cc1[nH]c2ccc(F)cc2c1-c1nc2c3cccnc3c3ncccc3c2[nH]1
Compound alone 0.0316 µM
  viability, T/C: 81, 84.1, 101, 90.3, 104, 95.4, 91.8, 78.8, 80.3, 83.8, 72.4, 90%
Compound alone 0.1 µM
  viability, T/C: 98.7, 96.3, 110, 95.4, 93.8, 98.2, 99.1, 85.7, 84.6, 72, 69.4, 70.4%
Compound alone 3.16 µM
  viability, T/C: 40.9, 37.1, 42.8, 41.1, 39.1, 49.2, 39.5, 43.5, 19.7, 22.8, 15.6, 17.8%

— PubChem BioAssay AID2060496 (Molecular Pharmacology Branch, DTP, NCI, 2025)
